According to the supplement of paper PMC11417369:
± gives the standard deviation of the averaged measurements. This is one part of the list.

tested on: PfAP2-LT AP2 domain (GST-tagged); experiment: gcPBM binding intensity (ln(normalized median fluorescence intensity)); higher = stronger DNA binding
Method in brief: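 In this array assay, P. falciparum DNA-binding domains with a GST tag, expressed in E. coli, were applied for 1 h to primer-extended double-stranded 36-bp intergenic genomic probes and negative controls on an Agilent 4 × 180k array. Bound protein was visualised with Alexa488 anti-GST antibody at 488 nm. Binding intensity is the highest Masliner-normalised natural-log median intensity across replicate spots of either probe orientation.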

Sequence	gcPBM binding intensity (ln)
ATTTATTTATTGGCACGTACAAATTTGTGTTTTCCA [XGTACX_site6978]	8.96 ± 0.45
TTTTTTTCTTTTCAAACACACAATTGGTATATATCA [CACACA_site7542]	8.78 ± 0.42
TTGTAAATTTCTGGTTATATATTTTATGTATATGTT [CACACA_negctrl_site1443]	8.86 ± 0.44
ATATATATATATATATGTACTGAATAAAGAACAAAA [XGTACX_site5400]	9.14 ± 0.2
CGTATATGACAAAAGCGTACGCATCAGCAGAAAAAT [XGTACX_site6248]	9.16 ± 0.37
TAAAAAAAAACATATACACACAAAAACGTACACATA [CACACA_site1354]	9.31 ± 0.3
TTTTTTTCTCACAATCGTACATAAATACATATATAT [XGTACX_site3150]	8.8 ± 0.54
AGAATATGTTAAAAAAGTACATACTCTTTATATACG [XGTACX_site79]	8.68 ± 0.46
AGGGGAAATAAAATATAAATTATCATATATATATAT [XGTACX_negctrl_site366]	9.11 ± 0.25
TATATTTTTTAAACCACACACAATATAGAGTAGAAT [CACACA_site613]	8.99 ± 0.4
TAATGTACATAAACCGCACACATATAAAAAAATAAA [CACACA_site2851]	9.3 ± 0.55
AGAAATAAGAAATATACACACATATAAATATAAATA [CACACA_site7342]	9.18 ± 0.43
AAAAAAAATGATAATATACACACTTATGGGAGAGCG [CACACA_site2516]	8.88 ± 0.46
AGAATATTTAATTCAACACACATACATATTTATTAA [CACACA_site5318]	8.73 ± 0.4
TATTGTATATACTATACACACACATACATACATACA [CACACA_site8172]	9.55 ± 0.32
ATATATTTATATAAATGTACATACAGCACATTTATA [XGTACX_site4725]	8.63 ± 0.33
CAAATATACATATGTAGTACATGTTGTAGATAATTT [XGTACX_site2790]	9.07 ± 0.38
TACTTTATATAAAGATCAAAAAATAAATAATTATAA [TGCATGCA_negctrl_site446]	8.29 ± 0.45
GAAGCCCTATGAAAAGTGCGGTTCATGAACAAAGAA [GTGCAC_site9828]	9.12 ± 0.57
GGATAATATATTAGAACACACATATAGATGTAAAAA [CACACA_site6229]	8.94 ± 0.49
TTATATTATACATACACACCCATATAATATGTTTTT [CACACA_site4636]	8.95 ± 0.47
TTGTTTTTGTTCTTGGGTACTTAAATTATAAATGAT [XGTACX_site113]	8.61 ± 0.42

Sequence	gcPBM binding intensity (ln)
TCTTATGAATATCCCCGTACACATATATTTCTTATA [XGTACX_site6877]	8.83 ± 0.47
AGCTACACACCACAATGTACATAAATATATATGTGA [XGTACX_site1483]	9.14 ± 0.47
TATTTGTAAATCGATACACACATATAGATTAATATA [CACACA_site6237]	8.88 ± 0.35
ATAAGGAAGGGATGCACACAAAAGGGTACATAAGAA [CACACA_site4006]	9.34 ± 0.61
TTTGAATCCTTATATACACACATTATAAAATATTAT [CACACA_site6406]	8.73 ± 0.42
TAAAATGCAATCTGAACACACATATTTTTTTAATAT [CACACA_site6922]	8.71 ± 0.42
TACATCATACGAACAGTGCATATTATTATTGTTCTG	8.89 ± 0.44
ATGGATTATACGTGCACACATATATACAAATAAATA [CACACA_site640]	9.26 ± 0.31
ACCATTTGTAGGTAAACACACATTATTATTAATATC [CACACA_site2635]	8.93 ± 0.4
GTATTTATAAATTATAGTACTTTGCGTATCATATAT [XGTACX_site7358]	8.83 ± 0.48
ATTTTATATCTGGATAGTACTTTAATATTTCAAATG [XGTACX_site7304]	8.63 ± 0.38
GGATATTCATTAACCACACACACAAAAAAAATAAAA [CACACA_site3800]	9.52 ± 0.53
TACTTACCAAAATACACACACACACTAGATATATAA [CACACA_site5096]	10 ± 0.23
TATATATCATATGATACATGCAACAAAATGCATAAT [TGCATGCA_site205]	8.89 ± 0.25
ATGTATATTACTCATTGTACTTATATTTTCTTATTA [XGTACX_site8897]	8.9 ± 0.45
AGATATTATAAAATATGTACATATATATATATATAT [XGTACX_site2088]	9.67 ± 0.38
TAATTAGATTATTTTTGTACATATTATTATAGGTTA [XGTACX_site2077]	8.61 ± 0.42
AAATATAACATCATCACACACATATACTTTATATGC [CACACA_site1126]	9.37 ± 0.27
AGCTTCATATTATGGAGTACTATTAAAAATAAATAA [XGTACX_site2649]	8.36 ± 0.5
AAAGTAATAATGATTTGTACATATATATATATATAT [XGTACX_site8821]	9.6 ± 0.4
TTATCTTTTTTCGTTTGTACGTAACCATATTACTAT [XGTACX_site8853]	9.01 ± 0.45
ATTTTTTATGTTAATGCATGCTCATGTGTATTTCAT [TGCATGCA_site751]	9.35 ± 0.42
